Source: the supplement of paper PMC11417369
± gives the standard deviation of the averaged measurements. Some of the results follow.

Test system: PfAP2-G AP2 domain (GST-tagged)
Assay: gcPBM binding intensity (ln(normalized median fluorescence intensity)); higher = stronger DNA binding
Summary of the method: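 The highest Masliner-normalised natural-log median intensity across replicate spots of either probe orientation is reported as binding intensity. GST-tagged P. falciparum DNA-binding domains expressed in E. coli were applied for 1 h to an Agilent 4 × 180k array of primer-extended double-stranded 36-bp intergenic genomic probes plus negative controls, and bound protein was detected with Alexa488 anti-GST antibody and scanned at 488 nm.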

**Q.** “TCCCTTTGTATATATATATAAATATATATATATATA [CACACA_negctrl_site157]” was tested. Which “gcPBM binding intensity (ln)” value did it give?
**A.** Its value is 9.87 ± 0.14.

**Q.** With “CATTAAAATGGTAAATGTACATATCCATCTTCTCAC [XGTACX_site4636]” as the sequence, how does the “gcPBM binding intensity (ln)” value read?
**A.** Its value is 11.1 ± 0.6.

**Q.** How did the “gcPBM binding intensity (ln)” value turn out when “TTTATCGAATATAATAGTACATAAAAAAAAAAAAAA [XGTACX_site1734]” was run?
**A.** Its value is 11.1 ± 1.1.

**Q.** “AGATTATATAAAAAAGTGCATATTTTCATTTTTTTT [GTGCAC_site9448]” was tested. Which “gcPBM binding intensity (ln)” value did it give?
**A.** Its value is 9.98 ± 0.18.

**Q.** How did the “gcPBM binding intensity (ln)” value turn out when “ACATTTTTTTTGTGAGTCTTTGCGGCATCAAAATTT [XGTACX_negctrl_site348]” was run?
**A.** Its value is 10.2 ± 0.29.

**Q.** For “AAAAAAGAAAAAAACTGTACATGATAAATATTTATT [XGTACX_site7270]”, which “gcPBM binding intensity (ln)” value is on record?
**A.** Its value is 10.9 ± 0.45.

**Q.** “TTATGAAGCAGACATGCATGTTATGGCTTAAATAAT [TGCATGCA_site492]” was tested. Which “gcPBM binding intensity (ln)” value did it give?
**A.** Its value is 9.79 ± 0.13.

**Q.** “ATTATGTTTCTTTTTTTTTTTAAAGGATGTCTTTTT [CACACA_negctrl_site974]” was tested. Which “gcPBM binding intensity (ln)” value did it give?
**A.** Its value is 9.855 ± 0.007.

**Q.** How did the “gcPBM binding intensity (ln)” value turn out when “TATAAATATATATACACACACATATATATTATATAT [CACACA_site596]” was run?
**A.** Its value is 9.99 ± 0.11.

**Q.** For “AAAAAATGATAATATACACACTTATGGGAGAGCGCA [CACACA_site5398]”, which “gcPBM binding intensity (ln)” value is on record?
**A.** Its value is 9.86 ± 0.057.

**Q.** For “TTTAAGCAAAAACACACACACATATATATATATATA [CACACA_site349]”, which “gcPBM binding intensity (ln)” value is on record?
**A.** The value was 10.1 ± 0.54.

**Q.** How did the “gcPBM binding intensity (ln)” value turn out when “TATTTAATACGGACTCATAAATCTTAATAAAAAAAA [CACACA_negctrl_site434]” was run?
**A.** The value was 10.7 ± 0.71.

**Q.** “AATATTAAACAAAATAAATATATAAAAAATAAATAA [GTGCAC_negctrl_site93]” was tested. Which “gcPBM binding intensity (ln)” value did it give?
**A.** Its value is 9.77.

**Q.** “AAGTTATATTTGTGTACACATAATTTTATACTAATA [CACACA_site5553]” was tested. Which “gcPBM binding intensity (ln)” value did it give?
**A.** The value was 11.6 ± 0.76.

**Q.** With “GACATATATATAAAATGTACATATATATTTACATAT [XGTACX_site7822]” as the sequence, how does the “gcPBM binding intensity (ln)” value read?
**A.** Its value is 11 ± 0.64.

**Q.** Which “gcPBM binding intensity (ln)” value does the source give for “TTATTTATAAACATATGTACTAATACATGATTAACA [XGTACX_site7645]” here?
**A.** The value was 11 ± 0.72.

**Q.** Which “gcPBM binding intensity (ln)” value does the source give for “TGTTCTTTATTTTATTGTACTTTTAAAATTCCTTTA [XGTACX_site8058]” here?
**A.** Its value is 11.5 ± 0.86.

**Q.** For “TGATAATAAGCATACACACACACACTAGAAAAAAAA [CACACA_site4558]”, which “gcPBM binding intensity (ln)” value is on record?
**A.** The value was 10.01 ± 0.099.

**Q.** “TATTATAATAAGAAGTGTACGTGTTTTTATAAATAA [XGTACX_site575]” was tested. Which “gcPBM binding intensity (ln)” value did it give?
**A.** Its value is 11.6 ± 0.94.

**Q.** With “AAAAAAAAAAGACATGCATACGCTAATTTTTAGTTG [TGCATGCA_site300]” as the sequence, how does the “gcPBM binding intensity (ln)” value read?
**A.** Its value is 10 ± 0.13.

**Q.** For “ATATATTTTTAAAAAAATTAAGAATTTTACATCTCC [CACACA_negctrl_site1450]”, which “gcPBM binding intensity (ln)” value is on record?
**A.** Its value is 9.81 ± 0.014.

**Q.** With “TATAAAAAAAACGAAAAAAAAAAAAAAAATACAGGA [TGCATGCA_negctrl_site585]” as the sequence, how does the “gcPBM binding intensity (ln)” value read?
**A.** Its value is 10 ± 0.26.

**Q.** “AAAAAAAAAAGACACACACACAAAAAAAGATATATA [CACACA_site6645]” was tested. Which “gcPBM binding intensity (ln)” value did it give?
**A.** The value was 9.975 ± 0.007.

**Q.** Which “gcPBM binding intensity (ln)” value does the source give for “TAGAATAAGATAGATATACACACCATTATAAATATA [CACACA_site2500]” here?
**A.** Its value is 9.82 ± 0.13.

**Q.** How did the “gcPBM binding intensity (ln)” value turn out when “TTACAAAATAAGAGGCACAAACACAAAAAAAAATAA [CACACA_negctrl_site574]” was run?
**A.** Its value is 10.2 ± 0.15.

**Q.** Which “gcPBM binding intensity (ln)” value does the source give for “TTGTTCAAACAAAAAATAAAATAATTGAAAATAAAA [CACACA_negctrl_site812]” here?
**A.** Its value is 9.745 ± 0.092.

**Q.** How did the “gcPBM binding intensity (ln)” value turn out when “GTAACTTTATTATACTGTACTATTATATAAGCACAC [XGTACX_site2859]” was run?
**A.** Its value is 11.4 ± 0.91.

**Q.** For “ATAAAAATATTACGCACACACAAACTTATTCATTAT [CACACA_site1969]”, which “gcPBM binding intensity (ln)” value is on record?
**A.** The value was 10.3 ± 0.2.

**Q.** How did the “gcPBM binding intensity (ln)” value turn out when “TGTAAAAAATTTAACACACACATATATATATATATA [CACACA_site2585]” was run?
**A.** Its value is 9.86 ± 0.071.

**Q.** With “ATTACAATATATACGTGTACATATTACCACCGCTAC [XGTACX_site2308]” as the sequence, how does the “gcPBM binding intensity (ln)” value read?
**A.** The value was 11.4 ± 0.67.

**Q.** For “TGGGTAAACAAACACACACACATATATATATATATA [CACACA_site1992]”, which “gcPBM binding intensity (ln)” value is on record?
**A.** Its value is 10.1 ± 0.25.

**Q.** Which “gcPBM binding intensity (ln)” value does the source give for “AAATATATATATAGTTGTACATATATCGTATATATT [XGTACX_site7867]” here?
**A.** Its value is 11.2 ± 0.78.

**Q.** How did the “gcPBM binding intensity (ln)” value turn out when “TTCACTAATAAATACGCACACATATACAGATATATA [CACACA_site4887]” was run?
**A.** The value was 10.4 ± 0.4.

**Q.** “GGATGCACACAAAAGGGTACATAAGAAAAAAACAGG [XGTACX_site8570]” was tested. Which “gcPBM binding intensity (ln)” value did it give?
**A.** Its value is 11.5 ± 0.6.

**Q.** Which “gcPBM binding intensity (ln)” value does the source give for “CACGCACAGATATATACACACTTTTATTTAAATAAC [CACACA_site6852]” here?
**A.** Its value is 10.3 ± 0.18.

**Q.** How did the “gcPBM binding intensity (ln)” value turn out when “AAAAATAAAATGGACACACACGTTCAAATTTAGATT [CACACA_site5186]” was run?
**A.** The value was 10.7 ± 0.43.

**Q.** With “AAAAAAAAATATATAAACACACATATTTATATACAC [GTGCAC_negctrl_site545]” as the sequence, how does the “gcPBM binding intensity (ln)” value read?
**A.** Its value is 9.65 ± 0.15.

**Q.** How did the “gcPBM binding intensity (ln)” value turn out when “TTATTTAAATAATATGTACACACATTTAAAAAATTA [CACACA_site8912]” was run?
**A.** The value was 11.6 ± 0.95.

**Q.** With “ATGAGTGTAATAATATGTACATAACCTACATAATTT [XGTACX_site852]” as the sequence, how does the “gcPBM binding intensity (ln)” value read?
**A.** The value was 11.1 ± 0.52.

**Q.** “AGTTGTTACGAACATACACACGAACATAGACACGGA [CACACA_site8102]” was tested. Which “gcPBM binding intensity (ln)” value did it give?
**A.** The value was 10.4 ± 0.29.

**Q.** Which “gcPBM binding intensity (ln)” value does the source give for “ACACGCACATATATATAAATATATATATATATAAAT [CACACA_negctrl_site1781]” here?
**A.** Its value is 9.87 ± 0.14.

**Q.** For “AATAAAAATATTTTTACATGCAAATGTTATATATTT [TGCATGCA_site1056]”, which “gcPBM binding intensity (ln)” value is on record?
**A.** Its value is 9.74 ± 0.22.

**Q.** For “GCACACATATAATAATGTACATATATATATTTAAAA [XGTACX_site4561]”, which “gcPBM binding intensity (ln)” value is on record?
**A.** Its value is 11.1 ± 0.66.

**Q.** For “TATTGATTATTTGAATGTACTTATTATATTAAATAT [XGTACX_site1304]”, which “gcPBM binding intensity (ln)” value is on record?
**A.** Its value is 11.2 ± 0.9.

**Q.** How did the “gcPBM binding intensity (ln)” value turn out when “TAATATGATCTTAATAGTACTTTATTAATAATAACC [XGTACX_site1953]” was run?
**A.** The value was 10.8 ± 0.57.

**Q.** With “TATATATGTTTATGTAGTACTATATATCCCTTTCTT [XGTACX_site7049]” as the sequence, how does the “gcPBM binding intensity (ln)” value read?
**A.** The value was 11.2 ± 0.71.

**Q.** With “AAAAAAAATTATTATGAACACACATTTATTATATTC [CACACA_site8443]” as the sequence, how does the “gcPBM binding intensity (ln)” value read?
**A.** The value was 9.66 ± 0.18.

**Q.** For “ATTCTACACAGACATACACACATATATATATATATA [CACACA_site5826]”, which “gcPBM binding intensity (ln)” value is on record?
**A.** Its value is 10.3 ± 0.25.

**Q.** “AATAACCACAGACACACACACATATAAATATAAATA [CACACA_site7631]” was tested. Which “gcPBM binding intensity (ln)” value did it give?
**A.** Its value is 10.2 ± 0.28.

**Q.** How did the “gcPBM binding intensity (ln)” value turn out when “TCTTTTAACACATGTGATATTATTTAATAACAATAA [CACACA_negctrl_site339]” was run?
**A.** Its value is 9.795 ± 0.049.

**Q.** With “GGTATACACAAGTATACACACATATAAATATAAATA [CACACA_site7511]” as the sequence, how does the “gcPBM binding intensity (ln)” value read?
**A.** Its value is 10.1 ± 0.25.

**Q.** “TGTACATATATATATATATATGTTACTGAAATAAAA [CACACA_negctrl_site1658]” was tested. Which “gcPBM binding intensity (ln)” value did it give?
**A.** Its value is 10.7 ± 0.45.

**Q.** “AAGAATAACTTTTATACATGCAGCATAATATATTGT [TGCATGCA_site605]” was tested. Which “gcPBM binding intensity (ln)” value did it give?
**A.** Its value is 10.01 ± 0.014.

**Q.** Which “gcPBM binding intensity (ln)” value does the source give for “CTTTTATAATTCATATGTACTTATTTTTAACATAGG [XGTACX_site7808]” here?
**A.** Its value is 11.3 ± 0.86.

**Q.** Which “gcPBM binding intensity (ln)” value does the source give for “GTGATTAATATATACACACATACATATATATATATA [CACACA_site2817]” here?
**A.** Its value is 10.1 ± 0.2.
